Test results taken from the supplement of paper PMC11417369.
± gives the standard deviation of the averaged measurements. The list shows a part of the results.

system: PfAP2-I AP2 domain 3 (GST-tagged); assay: gcPBM binding intensity (ln(normalized median fluorescence intensity)); higher = stronger DNA binding
Method in brief: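 The highest Masliner-normalised natural-log median intensity across replicate spots of either probe orientation is reported as binding intensity. GST-tagged P. falciparum DNA-binding domains expressed in E. coli were applied for 1 h to an Agilent 4 × 180k array of primer-extended double-stranded 36-bp intergenic genomic probes plus negative controls, and bound protein was detected with Alexa488 anti-GST antibody and scanned at 488 nm.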

Row | Sequence | gcPBM binding intensity (ln)
1 | TGGAAAGTTATTAACACACACATATAAATATTTATA [CACACA_site6173] | 7.69 ± 0.4
2 | AAGTACCATATAGGCACACATATATATATATATATA [CACACA_site3282] | 9.47 ± 0.6
3 | AAAAACCATTCGCACACACACATAATCTATAATATA [CACACA_site6782] | 8.32 ± 0.48
4 | AATATATATATTAAATGTACATTACATAATTATATA [XGTACX_site3450] | 7.66 ± 0.2
5 | TAAATGAAAATATGTACACACTTGAAAACTTTTATG [CACACA_site7388] | 7.84 ± 0.45
6 | TGCAACAAAATAAACACACACACACTAGCACAAAAA [CACACA_site5805] | 8.36 ± 0.48
7 | TTTTTTTTTTTAGACACATGCATTTTTATAATTTTC [TGCATGCA_site843] | 8.1 ± 0.78
8 | AATATTTTGATGTGTACACATTAATACAGTTTTACA [CACACA_site5711] | 8.21 ± 0.29
9 | TATATATATTAACTTGTGCGCAAAAAGATATAATTT [GTGCAC_site9672] | 8.95 ± 0.38
10 | ATATGTATGTATGTCTCAAAATTTCATATTATATTA [CACACA_negctrl_site784] | 7.43 ± 0.56
11 | TAGGATATTGAATAATGTACTTTATATATAATATAA [XGTACX_site7828] | 7.61 ± 0.42
12 | AAGAAATAAAAAAAACGTACATATATACATACATAC [XGTACX_site3980] | 8.58 ± 0.44
13 | AACATATTAATGTACACACACCCACGCACAAACAAA [CACACA_site7320] | 8.56 ± 0.2
14 | TAGGAGAAAAAAAAAAGTACCCACAACTATTATACT [XGTACX_site8195] | 7.92 ± 0.46
15 | TGGTAATATCGATTCACACATATCAAAATAAAAAAA [CACACA_site4196] | 7.72 ± 0.49
16 | TCCTAATGCTACCACACACACAAAAACAAATAATAA [CACACA_site2610] | 8.47 ± 0.099
17 | TTATAAGATTTATGTACACACATATACACAGCTCTA [CACACA_site6481] | 7.76 ± 0.5
18 | AGTATTATATATATATGTACATAATATACATATATA [XGTACX_site8514] | 7.61 ± 0.4
19 | TAATTAATTTACATTTTAATTTTATACAAAATTTAT [CACACA_negctrl_site830] | 7.35 ± 0.4
20 | ACATATTTATATTCTACACACTTATACTATAATACA [CACACA_site7204] | 8.05 ± 0.49
21 | GTTATACGCATCAACACACACATACAACGTGGTGTA [CACACA_site1188] | 7.62 ± 0.46
22 | ATGGAACTTAAAAATTGTACACATAAAATGGAGAAG [XGTACX_site1823] | 8.13 ± 0.7
23 | GCTATAAATACAGACGCACACATATACATACAGATA [CACACA_site5778] | 8.22 ± 0.4

Row | Sequence | gcPBM binding intensity (ln)
24 | TGTTATTAGAAAAATGCACACCAAAAAAAAAAAAAA [CACACA_site8802] | 8.7 ± 0.13
25 | ATATACATAATATATAATATAAATATATATATGGAA [CACACA_negctrl_site906] | 7.3 ± 0.26
26 | TATTAAAATATTTATACACACATAATTTTGATAAAT [CACACA_site4486] | 7.72 ± 0.35
27 | TGTCATTCCTCTTATTGTACAAAAATATTATAATAT [XGTACX_site1134] | 8.21 ± 0.41
28 | TATTTAAATTTGTATAATGGACGAATTATATAGAAA [GTGCAC_negctrl_site650] | 7.8 ± 0.64
29 | CCCACAGACGGACACACACACATATATATATATATA [CACACA_site4351] | 9.43 ± 0.35
30 | TCAAAACATTATTCCATACACACCATACTTTTTAAT [CACACA_site2770] | 8.02 ± 0.71
31 | TTGAATTATAAGAATAAACACACAAGCTTAAAAAAA [CACACA_site8318] | 7.61 ± 0.68
32 | TTTAATTTTTTTTATAGTACATAAAAAATAAAAAAA [XGTACX_site5631] | 7.72 ± 0.28
33 | TTTATTTGTGCATATACACACTTAAATATGTTTATT [CACACA_site7772] | 9.405 ± 0.035
34 | TACAACCTTATAATTAGTACTTAGTTATGCTGTAAA [XGTACX_site6052] | 7.5 ± 0.52
35 | ACATAAAATTGGAGCAAACACACAAGGTTGAAATTA [CACACA_site505] | 7.66 ± 0.66
36 | TTTGTTATGGTTTTCTCACACATATATATATATATA [CACACA_site4617] | 9.47 ± 0.47
37 | CCGATATAATGGAAAACACACAAAAGATATTTATAT [CACACA_site7293] | 7.71 ± 1
38 | ATTATAATACTTTGTATGCACTAATCAATTATTAAA | 10.1 ± 0.38
39 | CTGTAAAAAATATAAACACACATAGAAATATATAAA [CACACA_site340] | 7.79 ± 0.58
40 | CCTCATAAGTTCTTATGTACGTATTGTTCACCTTTA [XGTACX_site6640] | 7.83 ± 0.64
41 | TTAAGAAACAAAGAAAGTACACAACATAATATAGAA [XGTACX_site477] | 8.04 ± 0.83
42 | TTAATAATAAAAAGGAGTACACTAATATACTATAAA [XGTACX_site2346] | 7.99 ± 0.16
43 | AATAAAATCATCTATACACACAAAAAAAATAAGAAA [CACACA_site2101] | 7.75 ± 0.59
44 | ATATAATATATATATAAACACACAAAAAAAATTATA [CACACA_site8434] | 7.71 ± 0.6
45 | AATAACCACGGACACACACACATATATATATATATA [CACACA_site5873] | 9.38 ± 0.25
46 | ATTTATTAAAAGAAATGTACAGAAAATGTTTGGAAT [XGTACX_site7187] | 8.12 ± 0.49

Row | Sequence | gcPBM binding intensity (ln)
47 | AAGAAAAAAAAGATAATAATAATAATAATAAAATGA [TGCATGCA_negctrl_site398] | 7.62 ± 0.5
48 | ATTTAATATCACAATATATTTTTTACCCTTATCAGC [CACACA_negctrl_site491] | 7.59 ± 0.76
49 | TATATGGTATGTATTACACACATATCACATATATAT [CACACA_site3045] | 7.67 ± 0.49
50 | GGAATGGTACATGATACACACACGCACATATAAATA [CACACA_site7581] | 7.99 ± 0.49
51 | TGGTAAATTGAGAATCGTACATTAAAAAACATAAAA [XGTACX_site3253] | 7.88 ± 0.64
52 | TTTTCTATATAGTGTTGTACATTATTGTGTAAAAAT [XGTACX_site3223] | 8.04 ± 0.3
53 | ATATTTTATACTTGCACACAAAATATATTAAAATGG [CACACA_site5139] | 8.78 ± 0.23
54 | ATAAAATTGGAGCAAACACACAAGGTTGAAATTAAC [CACACA_site506] | 7.99 ± 0.81
55 | TTATGTTGTAAATGCACACATACAAATACATATACA [CACACA_site1368] | 9.79 ± 0.43
56 | TACAATATAAAATACACACGCACACCGAAAAAAAAA [CACACA_site5865] | 8.24 ± 0.64
57 | AAAGAAAAAGAAAAAGAAAAAATAAAATAAAATAAA [CACACA_negctrl_site872] | 7.75 ± 1.3
58 | TATATATTATATATATGTACTTATTCATATATATAA [XGTACX_site3860] | 7.54 ± 0.16
59 | CTTTAATATATTTAAGTGCAAAACTAATATGTAAAG | 9.62 ± 0.13
60 | TATTTAAAAACAAAAAGTACTAATATATATTTATAC [XGTACX_site1422] | 7.68 ± 0.46
61 | GACTGAACAACATAATGTACATTTATAAGTATATAT [XGTACX_site3813] | 8 ± 0.42
62 | AGTAGTATGGAGAAAAGTACATAGTATCTGATAACC [XGTACX_site2040] | 8.12 ± 0.79
63 | TAAAAAATAAAATACACACACATATATATATATATA [CACACA_site1323] | 9.33 ± 0.2
64 | AAAAAAATTAAAGATTGTACTTGATTTTTCATTTTA [XGTACX_site6685] | 7.24 ± 0.48
65 | GAGGGAAAAAATAATCGTACAAAGAAAAAAAAAAAT [XGTACX_site7361] | 7.99 ± 0.5
66 | TATATTCTTTTTTTAACACACAAAAAAAATAAAATA [CACACA_site1898] | 7.88 ± 0.26
67 | AAAGAATTGTATAAAAGTACATATTTGTTTGTTTTA [XGTACX_site7380] | 7.38 ± 0.47
68 | TTTTTTTCATAAATTAGGTAATGTCGCAGGGGGACA [TGCATGCA_negctrl_site556] | 9.21 ± 0.37
69 | ATATACAAAGAAGCAGTGCATATTTTCTTATTTATG [GTGCAC_site9567] | 8.99 ± 0.43

Row | Sequence | gcPBM binding intensity (ln)
70 | TGAAAGAATAGAATGAGTACTAATTTAAATTACACT [XGTACX_site1120] | 7.79 ± 0.55
71 | TTGATTTCATTTTAAGTGCATAACTAATATTATATA [GTGCAC_site9713] | 9.81 ± 0.33
72 | TTCTTTATATATTTTTGTACATATTTATTTTTAGAG [XGTACX_site6757] | 8.15 ± 0.64
73 | CAAATACACCAACACACACACACAAAAAAAAAAAAA [CACACA_site514] | 8.14 ± 0.26
74 | TAAGTACGACTTGACACACATACACATATATATATA [CACACA_site1286] | 9.38 ± 0.29
75 | ATTACCAACAGATCTTGTACATATTAAAGCATCTTA [XGTACX_site2361] | 7.84 ± 0.57
76 | TTTTTTGCTAAGTGTACACAAATGTTTATTAATTTA [CACACA_site5859] | 8.42 ± 0.27
77 | GATAAAATGAGACCAGTGCATTATTAGTTGTACACC | 11.3 ± 0.53
78 | TGTGCTTATCCTAACACACACAACATATAAGAAAAA [CACACA_site3319] | 8.92 ± 0.24
79 | AAAAAATAAAAAATATGTACACATTCAAAATTTTAC [XGTACX_site8479] | 7.81 ± 0.35
80 | TATACATATTTATACACACACACATATATTTATATA [CACACA_site6727] | 7.95 ± 0.34
81 | ATATATATATATATATGTACATATTACATTACTTAT [XGTACX_site749] | 9.38 ± 0.75
82 | AAAAAGAAAAAAAACACACACAAATATAAATAAATA [CACACA_site1183] | 7.42 ± 0.71
83 | ATAAAACAAGCAAATCGTACAAAAGGATAATATATA [XGTACX_site5592] | 7.84 ± 0.55
84 | ATATATATTTAAGAGGGTACAAAAATTTATGAGCAT [XGTACX_site6156] | 8.07 ± 0.61
85 | TTAGGTAGAAAAAAGACACACACATTATATATATAT [CACACA_site8016] | 9.15 ± 0.014
86 | ATGTATGGTTTATATGTTCATTTGTTCACCTATTTA [CACACA_negctrl_site1533] | 7.86 ± 0.73
87 | AAAAAAAAAAAAAACACACACACACCCATACCCATA [CACACA_site5577] | 8.47 ± 0.49
88 | TCTTTGGTAATATATATGTATAAATATAAATATATA [CACACA_negctrl_site1566] | 7.56 ± 0.48
89 | ATATATATATATGTTAGTACATAACAAGTGTGCATA [XGTACX_site1527] | 9.36 ± 0.11
